Measurements from the supplement of paper PMC10126150.
Values marked as one replicate rest on one cluster of the flow cell; about a third of the high ones do not repeat.
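Note: ATP exposure 15 min at 22 °C before imaging.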

These sequences were tested on ATP (assay: switch fluorescence ratio, 500 uM ATP over buffer (Cy3 cluster intensity, sum of 5 cycles each) (fold (ratio)); higher = stronger signal-on switching upon ATP binding; sequences stand for … in TCGTCGGCAGCGTCAGATGTGTATAAGAGACAGTTTTTTTTTTTTTTTTTTTTTTTTT…TC). Details: aptamer strand: ATP DNA aptamer (quencher-CACCTGGGGGAGTATTGCGGAGGAAGG + anchor), 100 nM annealed; ATP concentration: 500 uM; one replicate.
How it was run: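 Values give the fluorescence ratio for each switch-domain sequence, averaged from per-cluster ratios of summed target-cycle to summed buffer-cycle Cy3 intensity. The Cy3-labelled switching-strand clusters sat on a modified Illumina MiSeq flow-cell, were annealed to 100 nM quencher-labelled ATP aptamer, and were imaged in selection buffer, then after 15 min with 500 uM ATP at 22 °C. Five cycles ran with NaOH stripping and re-annealing between them, and clusters outside 100-1000 RFU were excluded.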
GTAAATGAAG gave a switch fluorescence ratio of 0.929.
With GTAACCGGCA the switch fluorescence ratio was 1.06.
Sequence GTAACCTGCT has a switch fluorescence ratio of 1.01.
Sequence GTAACGTCGG has a switch fluorescence ratio of 1.
GTAACTGGAT showed a switch fluorescence ratio of 1.1.
In the case of GTAAGAGTAC, the switch fluorescence ratio is reported as 1.09.
Work on GTAAGTAGAA yielded a switch fluorescence ratio of 1.
GTAAGTAGCA showed a switch fluorescence ratio of 0.972.
GTAAGTCTAA showed a switch fluorescence ratio of 1.03.
GTAAGTTGCC was tested, and the switch fluorescence ratio was 1.02.
GTAAGTTTGC gave a switch fluorescence ratio of 1.
GTAAGTTTTG gave a switch fluorescence ratio of 1.01.
For GTAATAACAT, the switch fluorescence ratio was 1.02.
GTAATACTAA was tested, and the switch fluorescence ratio was 1.1.
GTAATCACAG was tested, and the switch fluorescence ratio was 1.06.
With GTAATCCAAG the switch fluorescence ratio was 1.01.
GTAATCCTAA was tested, and the switch fluorescence ratio was 1.02.
Work on GTAATCGAAT yielded a switch fluorescence ratio of 0.996.
For GTAATCTAGA, the switch fluorescence ratio was 1.02.
For GTAATGTCGG, the switch fluorescence ratio was 0.978.
GTAATTAGGC gave a switch fluorescence ratio of 1.03.
GTAATTATGA showed a switch fluorescence ratio of 0.978.
With GTAATTCCAT the switch fluorescence ratio was 0.999.
Work on GTAATTGCGA yielded a switch fluorescence ratio of 1.02.
Sequence GTACAGAGCG has a switch fluorescence ratio of 1.02.
GTACAGAGTG showed a switch fluorescence ratio of 1.04.
Work on GTACCAAGCA yielded a switch fluorescence ratio of 1.03.
Sequence GTACCCAAAT has a switch fluorescence ratio of 0.967.
Sequence GTACCCATTA has a switch fluorescence ratio of 1.01.
Sequence GTACCTATAA has a switch fluorescence ratio of 1.03.
GTACGCAGTG was tested, and the switch fluorescence ratio was 1.01.
For GTACGCTTTT, the switch fluorescence ratio was 1.1.
GTACGGTAGG gave a switch fluorescence ratio of 1.02.
In the case of GTACGTAGCG, the switch fluorescence ratio is reported as 1.06.
GTACGTTGCG was tested, and the switch fluorescence ratio was 1.03.
Sequence GTACGTTGTC has a switch fluorescence ratio of 1.03.
In the case of GTACTAAAAA, the switch fluorescence ratio is reported as 0.981.
For GTACTGAAGA, the switch fluorescence ratio was 1.01.
GTACTTAGCG was tested, and the switch fluorescence ratio was 1.04.
Work on GTACTTCGCC yielded a switch fluorescence ratio of 1.26.
Sequence GTAGACACCT has a switch fluorescence ratio of 1.15.
With GTAGAGTAGA the switch fluorescence ratio was 0.995.
Sequence GTAGCAATTG has a switch fluorescence ratio of 4.19.
With GTAGCAGGTG the switch fluorescence ratio was 2.93.
Work on GTAGCCCCTG yielded a switch fluorescence ratio of 0.979.
Sequence GTAGCCGAGG has a switch fluorescence ratio of 1.05.
Sequence GTAGCCGCCC has a switch fluorescence ratio of 1.1.
GTAGCGTATT was tested, and the switch fluorescence ratio was 1.03.
GTAGCTGGGA was tested, and the switch fluorescence ratio was 1.04.
With GTAGGATCAG the switch fluorescence ratio was 0.967.
GTAGGCCAGG gave a switch fluorescence ratio of 1.01.
In the case of GTAGGTAAAG, the switch fluorescence ratio is reported as 0.997.
In the case of GTAGGTGTTT, the switch fluorescence ratio is reported as 1.03.
GTAGTAAATT showed a switch fluorescence ratio of 1.08.
With GTAGTACAT the switch fluorescence ratio was 0.985.
GTAGTACATG showed a switch fluorescence ratio of 1.02.
In the case of GTAGTACTTT, the switch fluorescence ratio is reported as 1.02.
Work on GTAGTATATT yielded a switch fluorescence ratio of 0.998.
GTAGTCAACG gave a switch fluorescence ratio of 1.03.
GTAGTCATAT gave a switch fluorescence ratio of 1.08.
In the case of GTAGTCTGAG, the switch fluorescence ratio is reported as 0.979.
GTAGTGGTAT gave a switch fluorescence ratio of 0.995.
Work on GTAGTTAGGC yielded a switch fluorescence ratio of 1.03.
Work on GTATAATATT yielded a switch fluorescence ratio of 1.01.
In the case of GTATACAAAC, the switch fluorescence ratio is reported as 1.
For GTATACCTTC, the switch fluorescence ratio was 1.22.
With GTATACGTCG the switch fluorescence ratio was 0.98.
GTATACTTCG showed a switch fluorescence ratio of 1.02.
GTATAGAGGG was tested, and the switch fluorescence ratio was 0.971.
Work on GTATAGGGGG yielded a switch fluorescence ratio of 0.99.
GTATAGTCAA showed a switch fluorescence ratio of 0.991.
For GTATAGTGCG, the switch fluorescence ratio was 1.
GTATATCTGG was tested, and the switch fluorescence ratio was 0.994.
Work on GTATATGTG yielded a switch fluorescence ratio of 0.999.
Sequence GTATATTGGA has a switch fluorescence ratio of 1.01.
GTATATTGTT gave a switch fluorescence ratio of 0.936.
